Reference: the supplement of paper PMC10126150
Sequences with one replicate were seen in a single cluster, so their values are uncertain.

Tested on: ATP
Test: switch fluorescence ratio, 500 uM ATP over buffer (Cy3 cluster intensity, sum of 5 cycles each) (fold (ratio)); higher = stronger signal-on switching upon ATP binding; sequences stand for … in TCGTCGGCAGCGTCAGATGTGTATAAGAGACAGTTTTTTTTTTTTTTTTTTTTTTTTT…TC
Conditions: aptamer strand: ATP DNA aptamer (quencher-CACCTGGGGGAGTATTGCGGAGGAAGG + anchor), 100 nM annealed; ATP concentration: 500 uM; one replicate
In short: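 Clusters carrying Cy3-labelled switching strands on a modified Illumina MiSeq flow-cell were annealed to 100 nM quencher-labelled ATP aptamer and imaged in selection buffer. They were imaged again after 15 min with 500 uM ATP at 22 °C, over five buffer/ATP cycles with NaOH stripping and re-annealing in between. For each cluster, the fluorescence ratio is the summed Cy3 intensity of the target cycles divided by that of the buffer cycles, averaged per switch-domain sequence. Clusters outside 100-1000 RFU were left out.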
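Note: ATP exposure 15 min at 22 °C before imaging.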

Row | Sequence | switch fluorescence ratio
1 | CAGAGTTGTG | 0.98
2 | CAGAGTTTAC | 1.1
3 | CAGATAGCTG | 1.12
4 | CAGATAGGGT | 0.976
5 | CAGATGGCAT | 1.02
6 | CAGATGTCTA | 1.02
7 | CAGATTAAC | 0.991
8 | CAGATTAAGC | 0.946
9 | CAGATTACTA | 1.01
10 | CAGATTGAAG | 0.979
11 | CAGCAAGCCA | 1.33
12 | CAGCACGGGG | 0.978
13 | CAGCAGCATG | 1.36
14 | CAGCATGTCT | 0.999
15 | CAGCATTGC | 1.49
16 | CAGCATTTCA | 1.04
17 | CAGCCATGCC | 1.01
18 | CAGCCCATCG | 0.94
19 | CAGCCCGTAG | 2.3
20 | CAGCCCTCCT | 1.07
21 | CAGCCGCCGG | 1.03
22 | CAGCCGCTTC | 1.39
23 | CAGCCGGCTT | 1.1
24 | CAGCCTCGAG | 0.991
25 | CAGCCTTAAA | 0.987
26 | CAGCGAAGG | 0.969

Row | Sequence | switch fluorescence ratio
27 | CAGCGAGATG | 1.04
28 | CAGCGATGGG | 1.05
29 | CAGCGCACCA | 1.02
30 | CAGCGCTAGG | 1.03
31 | CAGCGGGAG | 0.993
32 | CAGCGGGTGA | 1.05
33 | CAGCGTACGA | 1.08
34 | CAGCGTCCAA | 1
35 | CAGCGTTATG | 0.999
36 | CAGCTGAAAC | 1.01
37 | CAGCTGAACG | 1.03
38 | CAGCTGGACA | 1.03
39 | CAGCTGGAG | 1.01
40 | CAGCTGGAGG | 1.01
41 | CAGCTGGCAA | 2.15
42 | CAGCTGTGCG | 1.06
43 | CAGCTTGAGC | 0.983
44 | CAGGAAAAGG | 1.08
45 | CAGGAAGCCG | 1.06
46 | CAGGAGAATG | 1.01
47 | CAGGAGAGCT | 0.965
48 | CAGGAGTACT | 1.03
49 | CAGGATCTCG | 1.02
50 | CAGGATTTAT | 1.05
51 | CAGGCGGGTC | 1.03
52 | CAGGCTAGA | 1.04

Row | Sequence | switch fluorescence ratio
53 | CAGGGAACTT | 1.02
54 | CAGGGACAGG | 1
55 | CAGGGGACAC | 1.02
56 | CAGGGGAGG | 1.02
57 | CAGGGGCCCA | 0.997
58 | CAGGGGGT | 1.03
59 | CAGGGGTAGT | 1.01
60 | CAGGGTACTC | 1.01
61 | CAGGGTCCGG | 1.03
62 | CAGGGTTTCC | 1.02
63 | CAGGTAAGTA | 0.992
64 | CAGGTAATA | 1.04
65 | CAGGTATACC | 0.991
66 | CAGGTCCTAA | 1.04
67 | CAGGTCTTCA | 0.985
68 | CAGGTGCGAC | 1.24
69 | CAGGTGGCGG | 0.986
70 | CAGGTGGTAT | 1.58
71 | CAGGTTAAAG | 0.971
72 | CAGTAAAGCG | 0.966
73 | CAGTAGCAGT | 3.27
74 | CAGTAGCCTG | 1.02
75 | CAGTAGCCTT | 1.04
76 | CAGTAGGT | 1.02
77 | CAGTAGGTAC | 1.17
78 | CAGTAGTGGT | 0.979

Row | Sequence | switch fluorescence ratio
79 | CAGTATGATT | 0.968
80 | CAGTATGGCT | 0.977
81 | CAGTATTATA | 0.995
82 | CAGTCAAGTA | 1.05
83 | CAGTCAGTTC | 1.03
84 | CAGTCCAAAT | 0.969
85 | CAGTCCGGAT | 0.991
86 | CAGTCGCATC | 1.75
87 | CAGTCGTAC | 1.09
88 | CAGTCTAAAA | 1.02
89 | CAGTCTAGC | 0.977
90 | CAGTCTGGAA | 1.05
91 | CAGTCTGTTC | 1.01
92 | CAGTCTTGAG | 0.997
93 | CAGTGACCGA | 1.1
94 | CAGTGGGAGC | 0.993
95 | CAGTGGGATC | 0.994
96 | CAGTGGGCTC | 0.984
97 | CAGTGGGTAG | 1.01
98 | CAGTGTAATG | 0.994
99 | CAGTGTCAGT | 0.952
100 | CAGTGTGGCC | 0.976
101 | CAGTTATTTT | 0.954
